# Assay results published in PubChem BioAssay AID1476 (National Center for Advancing Translational Sciences (NCATS), 2009).
# Hit rate of the full screen: of about 200,000 compounds, about 4,500 (2.2%) were called active. Inconclusive results, whose numbers are uncertain, are shown with a selection of clear calls. Calls follow the shape of the dose curve; as a rule, active = well fitted inhibition curve with a large enough effect; inconclusive = small, poorly fitted or top-dose-only effect, or effect the other way; inactive = flat fitted curve, though single readings scatter. Potencies of inconclusive entries are doubtful fits and often do not repeat.
# Biological target: Cruzipain (Trypanosoma cruzi) (UniProt P25779)
# Sequence of UniProt P25779 (P25779 whole entry, looked up): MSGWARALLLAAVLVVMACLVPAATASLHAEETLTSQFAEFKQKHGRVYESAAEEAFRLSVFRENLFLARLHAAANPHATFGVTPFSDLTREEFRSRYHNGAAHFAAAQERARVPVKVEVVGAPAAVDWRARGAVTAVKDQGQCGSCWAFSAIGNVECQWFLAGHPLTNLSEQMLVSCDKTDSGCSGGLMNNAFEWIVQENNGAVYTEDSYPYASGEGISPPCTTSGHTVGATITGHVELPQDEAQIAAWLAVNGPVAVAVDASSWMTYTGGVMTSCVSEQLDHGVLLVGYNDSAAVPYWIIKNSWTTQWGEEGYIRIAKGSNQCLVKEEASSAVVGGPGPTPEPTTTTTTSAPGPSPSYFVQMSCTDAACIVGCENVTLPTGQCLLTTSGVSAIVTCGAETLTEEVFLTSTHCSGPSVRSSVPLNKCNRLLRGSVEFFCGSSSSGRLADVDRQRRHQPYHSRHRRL
# Experiment: qHTS Assay for Promiscuous and Specific Inhibitors of Cruzain (without detergent); also: nearly all actives have a fitted effect of over 40% in size;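 as to max response, negative = inhibition: plate controls were enzyme without inhibitor for no effect and buffer without enzyme for full effect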
# Conditions: purified cruzain, Z-FR-AMC fluorescence, no detergent
# Summary of the method: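 Purified cruzain at 1.5 nM, pre-incubated 15 min with compound at room temperature in 100 mM sodium acetate pH 5.5, 5 mM DTT, 0.00005% Triton X-100. Reaction started with 2 uM Z-FR-AMC; AMC fluorescence increase over 60 s gives rate.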
# Potency is read from the fitted curve at half-maximal effect; tags tell the direction and shape of the fitted curve.
Compound,Potency,"max response, negative = inhibition"
O=C(Cn1c(=O)n(-c2ccccc2)c(=O)c2c3c(sc21)CCC3)c1ccc(F)cc1,"inconclusive: 20 µM [inhibitor, partial curve]",–
COc1cccc(CN(C(=O)COc2ccc(Cl)c(C)c2)C2CCS(=O)(=O)C2)c1 (stereo unspecified),"inconclusive: 39.8 µM [activator, single point]",–
COc1cccc(OC)c1C(=O)Nc1ccc(-c2nc3ncccc3o2)cc1,–,inactive: -2.32%
COc1ccc(S(=O)(=O)CCc2nnc(NC(=O)c3cccs3)s2)cc1,"inconclusive: 1.26 µM [inhibitor, full curve, poor fit]",–
O=C(O)c1ccc(NC(=S)NC(NC(=O)c2ccco2)C(Cl)(Cl)Cl)cc1 (stereo unspecified),–,inactive: 9.29%
CCOC(=O)c1c(NC(C)=O)c2c3c(sc2n1Cc1c(C)cc(C)cc1C)CCCC3,"inconclusive: 20 µM [activator, partial curve]",–
Cc1ccc(C(=O)Oc2oc(-c3ccccc3)nc2C=Nc2ccc(N(C)C)cc2)cc1,active: 25.1 µM,–
CO/N=C/NC(=O)Cc1cn(-c2ncc(C(F)(F)F)cc2Cl)c2ccccc12,"inconclusive: 5.01 µM [inhibitor, single point]",–
Cc1cc(C)cc(-n2ccn(CC(=O)NCCc3ccccc3)c(=O)c2=O)c1,–,inactive: -6.75%
Cc1ccc(S(=O)(=O)N2CCN(S(=O)(=O)c3ccccc3)C2c2ccc(N(C)C)cc2)cc1 (stereo unspecified),"inconclusive: 39.8 µM [inhibitor, single point]",–
CCC(CC)C(=O)Nc1nnc(S(=O)(=O)N(C)c2cc(C)cc(C)c2)s1,–,inactive: -18.9%
O=C(COC(=O)CSc1nnc(-c2ccc(Cl)cc2)o1)NCc1ccc2c(c1)OCO2,"inconclusive: 31.6 µM [activator, single point]",–
Cc1ccc(-c2csc(-c3c(N)c(C(=O)c4ccc5c(c4)OCO5)n4ccccc34)n2)cc1C,active: 3.16 µM,–
CCOc1ccc(C2C(=O)N(C3CCCCCC3)CC(=O)N2Cc2ccc(C)cc2)cc1OC (stereo unspecified),"inconclusive: 39.8 µM [activator, single point]",–
O=C(Nc1nc2ccccc2s1)C1CCCN1S(=O)(=O)c1ccc(Cl)cc1 (stereo unspecified),"inconclusive: 20 µM [inhibitor, single point]",–
Cc1ccc2nc(NCc3ccccc3)c3nncn3c2c1,–,inactive: -1.92%
COc1ccc(NC(=O)CSc2ccc(C)cc2)cc1,"inconclusive: 0.126 µM [activator, single point]",–
COc1ccc(-n2c(/C=C/c3cccc4ccccc34)nc3ccccc3c2=O)cc1OC,"inconclusive: 39.8 µM [activator, single point]",–
COc1ccc(N(C(=O)c2ccco2)C(C(=O)NC2CCCCC2)c2cccs2)cc1OC (stereo unspecified),"inconclusive: 39.8 µM [activator, single point]",–
COc1ccc(C(=O)Nc2ccc(-c3nc4ncccc4o3)cc2C)cc1Br,–,inactive: -7.57%
CCOc1ccc2c(c1)C(c1ccccc1)=NNC(c1ccccc1)=N2,"inconclusive: 31.6 µM [inhibitor, single point]",–
COc1ccccc1NC(=O)CSc1nc2n[nH]c(C)c2c(=N)n1-c1ccccc1Cl,"inconclusive: 31.6 µM [inhibitor, single point]",–

Compound,Potency,"max response, negative = inhibition"
O=C(NCCc1ccccc1)c1ccc([N+](=O)[O-])cc1,–,inactive: -0.0892%
Cc1cccc(-n2c(C)cc(/C=N/n3cnnc3)c2C)c1,–,inactive: -0.0877%
COc1ccc(CCN(C)c2ccc(S(=O)(=O)N3CCCC3)cc2[N+](=O)[O-])cc1OC,"inconclusive: 39.8 µM [activator, single point]",–
COc1cc2c(C(=O)NCc3ccc4c(c3)OCO4)cn(C)c(=O)c2cc1OC,"inconclusive: 39.8 µM [activator, single point]",–
COc1cc(C(=O)Nc2ccccc2N2CCN(S(C)(=O)=O)CC2)cc(OC)c1OC,"inconclusive: 31.6 µM [activator, single point]",–
CCc1ccc2oc(-c3cc(N=Cc4cccc(OC)c4O)ccc3O)nc2c1,active: 15.8 µM,–
COc1ccccc1NC(=O)N1c2ccccc2Sc2ccccc21,"inconclusive: 39.8 µM [inhibitor, single point]",–
COC(=O)c1nn(-c2ccccc2)nc1-c1nn(-c2ccccc2)nc1C(=O)OC,"inconclusive: 25.1 µM [activator, single point]",–
Cc1ccc(N2C(=O)/C(=C/c3ccc(CN(CCC#N)S(C)(=O)=O)o3)C(=O)NC2=S)cc1,"inconclusive: 39.8 µM [activator, single point]",–
COc1ccc(C2C(C#N)=C(N)Oc3c2c(=O)oc2ccccc32)cc1Cn1cc([N+](=O)[O-])cn1 (stereo unspecified),active: 25.1 µM,–
CCOC(=O)c1ccc(NC(=O)Cn2nc(SC)c(S(=O)(=O)c3ccc(Cl)cc3)c2N)cc1,–,inactive: -28.1%
O=C1O/C(=C/c2ccccc2)N=C1c1ccccc1,active: 15.8 µM,–
COc1ccc(-c2nc3cc(NC(=O)Cc4ccc(Cl)cc4)ccc3o2)cc1OC,"inconclusive: 6.31 µM [activator, single point]",–
Cc1ccsc1CCN1C(=O)N(c2ccccc2)C(=O)C1CC(=O)Nc1ccc(F)cc1 (stereo unspecified),–,inactive: -8.07%
Cc1ccc(CCNC(=O)CCN2N=C(c3ccc(C)cc3)CCC2=O)cc1,"inconclusive: 31.6 µM [activator, single point]",–
CCc1ccc(NC(=O)C2C3/C=C\CCCCC32)cc1 (stereo unspecified),"inconclusive: 39.8 µM [inhibitor, single point]",–
COc1cccc(C(=O)NCc2ccc(-c3nc4ccccc4s3)cc2)c1,"inconclusive: 31.6 µM [inhibitor, single point]",–
O=C(O)c1ccc2c(=O)n3c(nc2c1)/C(=C/c1cccc(Cl)c1Cl)CCCC3,"inconclusive: 3.98 µM [activator, single point]",–
CC(C)(C)Cc1nnc(NC(=O)Cc2ccc([N+](=O)[O-])cc2)s1,"inconclusive: 39.8 µM [inhibitor, single point]",–
CCn1c2ccccc2c2cc(NS(=O)(=O)c3ccc(C)cc3)ccc21,"inconclusive: 25.1 µM [inhibitor, single point]",–
CCn1[nH]c(=O)c(=Nc2c(C)n(C)n(-c3ccccc3)c2=O)cc1-c1ccc(Cl)cc1,"inconclusive: 31.6 µM [activator, single point]",–
CCC(C)n1cnc2c(c1=O)c1nc3ccccc3nc1n2Cc1ccc(OC)cc1 (stereo unspecified),"inconclusive: 39.8 µM [activator, single point]",–

Compound,Potency,"max response, negative = inhibition"
COc1cccc(CNC(=O)C2CCN(C(=O)N3CCOc4ccc(Cl)cc43)CC2)c1OC,"inconclusive: 39.8 µM [activator, single point]",–
COCCOC(=O)/C(=C/c1ccc(OC(=O)c2ccccc2)cc1)C(C)=O,"inconclusive: 31.6 µM [activator, single point]",–
Cc1ccc(CNc2ccc(-c3nc(C(C)C)no3)cc2[N+](=O)[O-])cc1,–,inactive: 13.9%
Cc1ccc(-n2nc(C(=O)N3CCN(c4cccc(C(F)(F)F)c4)CC3)c(=O)n(C)c2=O)cc1,"inconclusive: 10 µM [activator, partial curve]",–
COc1cc(NCCCCCCCN)c2ncccc2c1,active: 15.8 µM,–
CC1(O)/C=C\C=C(\CO)C2CC(C)(C)C2(O)CC1 (stereo unspecified),–,inactive: -4.28%
CCN(CC)c1ncnc2c1sc1nc(N3CCOCC3)c3c(c12)CCC3,"inconclusive: 39.8 µM [activator, single point]",–
CC(NC(=O)c1ccc2c(c1)N(Cc1cccc(F)c1)C(=O)c1ccccc1S2)c1ccccc1 (stereo unspecified),"inconclusive: 31.6 µM [inhibitor, single point]",–
Cc1ccc(C)c(N(CC(=O)NC2CCCC2)C(=O)c2cc3cc4cc(C)ccc4nc3s2)c1,"inconclusive: 39.8 µM [inhibitor, single point]",–
Cc1ccc(NC(=O)CSc2cc(=O)n(C)c3ccc(Cl)cc23)c(Br)c1,–,inactive: -7.79%
CCCC(=O)NCCc1c2n(c3ccc(OC)cc13)Cc1ccccc1-2,–,inactive: 4.93%
Cc1nc(C)c(CCNC(=O)c2ccccc2)s1,"inconclusive: 15.8 µM [inhibitor, partial curve]",–
CCNC(=S)Nc1ccccc1-c1ccccc1,–,inactive: -16%
CCn1c(-c2csc3ccccc23)n[nH]c1=S,"inconclusive: 20 µM [activator, single point]",–
Cn1c(N/N=C/c2cc3ccccc3nc2Cl)nc2ccccc21,–,inactive: 6.14%
COc1ccc(Cl)cc1NC(=O)c1cc(-c2ccccc2O)n[nH]1,active: 10 µM,–
COc1ccc(C2CC(c3ccccc3OC(C)=O)=NN2C(=O)/C=C/c2ccccc2)cc1OC (stereo unspecified),"inconclusive: 39.8 µM [activator, single point]",–
Cc1ccc(C)c(N2CCN(S(=O)(=O)c3ccc4c(c3)CCC(=O)N4)CC2)c1,"inconclusive: 31.6 µM [activator, single point]",–
C=CCOCCN1C(=O)C2C(c3ccccc3)C=CC(c3ccccc3)C2C1=O (stereo unspecified),"inconclusive: 31.6 µM [activator, single point]",–
CCOc1ccc(-c2cnc(NCc3ccc(C(F)(F)F)cc3)n2C)cc1,–,inactive: -1.41%
COc1ccc(C(=O)CC2(O)C(=O)Nc3c(C)cccc32)c(OC)c1OC (stereo unspecified),–,inactive: 0.0501%
Cc1cc(C)nc(NC(=NCc2ccc3c(c2)OCO3)NC(=O)Nc2ccccc2)n1,"inconclusive: 39.8 µM [inhibitor, single point]",–
